One experiment deals with KRas WT (Homo sapiens, UniProt P01116). The experiment in a line: KRas binding assay (TR-FRET displacement), KRas WT. The following applies: single point, 10 nM compound.
The target in a further experiment is KRas G12A (Homo sapiens, UniProt P01116, G12A). Type of experiment: binding. The following applies: single point, 10 nM compound, read-out: Binding to KRas (% inhibition at 10 nM) G12A.
The target of a further experiment is KRas G12C (Homo sapiens, UniProt P01116, G12C). The experiment is classed as binding. Conditions: single point, 10 nM compound, read-out: Binding to KRas (% inhibition at 10 nM) G12C.
The next experiment concerns the target KRas G12S (Homo sapiens, UniProt P01116, G12S). Type of experiment: binding. The following applies: single point, 10 nM compound, read-out: Binding to KRas (% inhibition at 10 nM) G12S.
Another experiment addresses KRas G13D (Homo sapiens, UniProt P01116, G13D). Type of experiment: binding. Conditions: single point, 10 nM compound, read-out: Binding to KRas (% inhibition at 10 nM) G13D.
The next experiment deals with KRas Q61H (Homo sapiens, UniProt P01116, Q61H). As to the kind of experiment: KRas binding assay (TR-FRET displacement), KRas Q61H. The following applies: single point, 10 nM compound. (Time-resolved FRET reads energy transfer from a long-lived donor to a nearby acceptor.)
The subject of a further experiment is MKN1 cells. The experiment in a line: Inhibition of KRas-mediated phosphorylation of ERK (Cisbio HTRF pERK), MKN1 cells. The experiment is classed as cell-based. Conditions: Homo sapiens, MKN-1, 3 hour compound incubation. As for the experimental part:
(§1) Inhibition of KRas Phosphorylation of ERK (HTRF) by Exemplary Compounds of Formula (I) Cisbio HTRF Advanced pERK Assay Catalog #64AERPEH • Cells: MKN1, PSN1 • Procedure: • Day 1: Seed 6,000 cells/well -25 µl/well in 384-well white solid bottom plate; RPM1_10% FBS.

In a further experiment the test system is PSN1 cells. As to the kind of experiment: Inhibition of KRas-mediated phosphorylation of ERK (Cisbio HTRF pERK), PSN1 cells. The following applies: Homo sapiens, PSN1, 3 h, 3 hour compound incubation, Cisbio pERK HTRF. The experiment is classed as cell-based. As for the experimental part:
as §1

Another experiment concerns ASPC1 cells. As to the kind of experiment: Inhibition of KRas-mediated phosphorylation of ERK (Cisbio HTRF pERK), ASPC1 cells. Conditions: Homo sapiens, AsPC-1 cells; for IC50: ASPC1, 3 h, 3 hr compound incubation, Cisbio pERK HTRF; for inhibition at 0.1 µM: ASPC1, single point at 100 nM, 3 hrs compound incubation. The experiment is classed as cell-based.
A further experiment deals with H727 cells. As to the kind of experiment: Inhibition of KRas-mediated phosphorylation of ERK (Cisbio HTRF pERK), H727 cells. The experiment is classed as cell-based. The following applies: Homo sapiens; for IC50: NCI-H727, 3 h, 3 hr compound incubation, Cisbio pERK HTRF; for inhibition at 0.1 µM: NCI-H727, single point at 100 nM, 3 hrs compound incubation.
In another experiment the test system is A549 cells. The experiment in a line: Inhibition of KRas-mediated phosphorylation of ERK (Cisbio HTRF pERK), A549 cells. The experiment is classed as cell-based. The following applies: Homo sapiens; for IC50: A549, 3 h, 3 hr compound incubation, Cisbio pERK HTRF; for inhibition at 0.1 µM: single point at 100 nM, 3 hrs compound incubation.
The next experiment deals with H460 cells. The experiment in a line: Inhibition of KRas-mediated phosphorylation of ERK (Cisbio HTRF pERK), H460 cells. Type of experiment: cell-based. Conditions: Homo sapiens; for IC50: NCI-H460, 3 h, 3 hr compound incubation, Cisbio pERK HTRF; for inhibition at 0.1 µM: NCI-H460, single point at 100 nM, 3 hrs compound incubation.
The next experiment has as its system HCT116 cells. As to the kind of experiment: Inhibition of KRas-mediated phosphorylation of ERK (Cisbio HTRF pERK), HCT116 cells. The following applies: Homo sapiens; for IC50: HCT-116, 3 h, 3 hr compound incubation, Cisbio pERK HTRF; for inhibition at 0.1 µM: HCT-116, single point at 100 nM, 3 hrs compound incubation. The experiment is classed as cell-based.
The subject of another experiment is H358 cells. The experiment in a line: Inhibition of KRas-mediated phosphorylation of ERK (Cisbio HTRF pERK), H358 cells. Type of experiment: cell-based. The following applies: Homo sapiens; for IC50: NCI-H358, 3 h, 3 hr compound incubation, Cisbio pERK HTRF; for inhibition at 0.1 µM: NCI-H358, single point at 100 nM, 3 hrs compound incubation.

The inhibition is the change of the read-out against control, counted positive when it falls. For orientation: IC50 means the concentration that gives 50% inhibition. Turning to `CCc1c(F)ccc2cc(O)cc(N3CCc4c(nc(OC[C@@]56CCCN5C[C@H](F)C6)nc4N4CCCn5nc(C(=O)N6CC7CC6CCO7)cc5C4)C3)c12` (stereo partly drawn) [Example 322, 2-oxa-6-azabicyclo[3.2.1]octan-6-yl(5-(7-(8-ethyl-7-fluoro-3-hydroxynaphthalen-1-yl)-2-(((2R,7aS)-2-fluorohexahydro-1H-pyrrolizin-7a-yl)methoxy)-5,6,7,8-tetrahydropyrido[3,4-d]pyrimidin-4-yl)-5,6,7,8-tetrahydro-4H-pyrazolo[1,5-a][1,4]diazepin-2-yl)methanone], the inhibition at 0.01 µM worked out at 97% at KRas WT; 97% at KRas G12A; 99% at KRas G12C; 99% on KRas G12S; 97% on KRas G13D; 98% at KRas Q61H. The 50% inhibitory concentration (IC50) is 3.1 nM in the experiment with MKN1 cells; 1300 nM in the experiment on PSN1 cells; 1 nM with ASPC1 cells; 2 nM in the experiment on H727 cells; 12 nM in the experiment with A549 cells; 23 nM in the experiment on H460 cells. For the same molecule, the half-inhibitory concentration (IC50) in the experiment with HCT116 cells came out at 80 nM; in the experiment on H358 cells it was 2 nM. For the same molecule, the inhibition at 0.1 µM was 98% in the experiment with ASPC1 cells; 80% in the experiment with H727 cells; 86% with A549 cells; 88% in the experiment on H460 cells; 77% with HCT116 cells; 104% in the experiment with H358 cells.

As to `CCc1c(F)ccc2cc(O)cc(N3CCc4c(nc(OC[C@@]56CCCN5C[C@H](F)C6)nc4N4CCCn5nc(C(=O)N6CC7CC6CO7)cc5C4)C3)c12` (stereo partly drawn) [Example 323, (2-oxa-5-azabicyclo[2.2.1]heptan-5-yl)(5-(7-(8-ethyl-7-fluoro-3-hydroxynaphthalen-1-yl)-2-(((2R,7aS)-2-fluorotetrahydro-1H-pyrrolizin-7a(5H)-yl)methoxy)-5,6,7,8-tetrahydropyrido[3,4-d]pyrimidin-4-yl)-5,6,7,8-tetrahydro-4H-pyrazolo[1,5-a][1,4]diazepin-2-yl)methanone], the inhibition at 0.01 µM worked out at 98% at KRas WT; 97% on KRas G12A; 99% at KRas G12C; 99% at KRas G12S; 98% at KRas G13D; 99% on KRas Q61H. Moreover, the IC50 in the experiment with MKN1 cells came out at 4.4 nM; in the experiment on PSN1 cells, 1560 nM; with ASPC1 cells, 2 nM; in the experiment on H727 cells it was 2 nM; with A549 cells it was 14 nM; in the experiment on H460 cells, 22 nM. In addition, the 50% inhibitory concentration (IC50) was found to be 52 nM in the experiment on HCT116 cells and 1 nM in the experiment with H358 cells. The inhibition at 0.1 µM came to 102% in the experiment on ASPC1 cells; 77% in the experiment with H727 cells; 96% with A549 cells; 81% with H460 cells; 72% in the experiment on HCT116 cells; 102% in the experiment with H358 cells.

For the molecule `CCc1c(F)ccc2cc(O)cc(N3CCc4c(nc(OC[C@@]56CCCN5C[C@H](F)C6)nc4N4CCCn5nc(C(=O)N6C7COCC6C7)cc5C4)C3)c12` [Example 325, 3-oxa-6-azabicyclo[3.1.1]heptan-6-yl(5-(7-(8-ethyl-7-fluoro-3-hydroxynaphthalen-1-yl)-2-(((2R,7aS)-2-fluorohexahydro-1H-pyrrolizin-7a-yl)methoxy)-5,6,7,8-tetrahydropyrido[3,4-d]pyrimidin-4-yl)-5,6,7,8-tetrahydro-4H-pyrazolo[1,5-a][1,4]diazepin-2-yl)methanone], the inhibition at 0.01 µM at KRas WT was 95%; on KRas G12A, 96%; on KRas G12C, 99%; on KRas G12S, 99%; at KRas G13D, 96%; at KRas Q61H, 96%. The 50% inhibitory concentration (IC50) in the experiment on MKN1 cells turned out to be 7.8 nM; with PSN1 cells, 2220 nM; in the experiment with ASPC1 cells, 2 nM; in the experiment on H727 cells it was 2 nM; with A549 cells it was 17 nM; in the experiment with H460 cells it was 36 nM. The IC50 in the experiment with HCT116 cells was determined as 71 nM; in the experiment on H358 cells, 2 nM. The inhibition at 0.1 µM in the experiment with A549 cells was determined as 88%; in the experiment on H460 cells it was 76%; with HCT116 cells it was 52%; in the experiment with H358 cells, 99%.

`CCc1c(F)ccc2cc(O)cc(N3CCc4c(nc(OC[C@@]56CCCN5C[C@H](F)C6)nc4N4CCCn5nc(S(=O)(=O)N(C)C)cc5C4)C3)c12` [Example 326, 5-(7-(8-ethyl-7-fluoro-3-hydroxynaphthalen-1-yl)-2-(((2R,7aS)-2-fluorohexahydro-11H-pyrrolizin-7a-yl)methoxy)-5,6,7,8-tetrahydropyrido[3,4-d]pyrimidin-4-yl)-N,N-dimethyl-5,6,7,8-tetrahydro-4H-pyrazolo[1,5-a][1,4]diazepine-2-sulfonamide]: the inhibition at 0.01 µM on KRas WT was 84%; at KRas G12A it was 61%; at KRas G12C it was 77%; at KRas G12S, 81%; on KRas G13D, 87%; at KRas Q61H, 86%. Moreover, the IC50 with MKN1 cells is 14.7 nM; in the experiment with PSN1 cells, above 10000 nM; in the experiment with ASPC1 cells, 78 nM; with H727 cells, 296 nM. The inhibition at 0.1 µM in the experiment on A549 cells worked out at 34%; with H460 cells, 48%; with HCT116 cells, 26%; in the experiment on H358 cells it was 13%.

For the molecule `CCc1c(F)ccc2cc(O)cc(N3CCc4c(nc(OC[C@@]56CCCN5C[C@H](F)C6)nc4N4CCCn5nc(C(=O)N6CC7CC(C6)O7)cc5C4)C3)c12` [Example 327, 6-oxa-3-azabicyclo[3.1.1]heptan-3-yl(5-(7-(8-ethyl-7-fluoro-3-hydroxynaphthalen-1-yl)-2-(((2R,7aS)-2-fluorohexahydro-1H-pyrrolizin-7a-yl)methoxy)-5,6,7,8-tetrahydropyrido[3,4-d]pyrimidin-4-yl)-5,6,7,8-tetrahydro-4H-pyrazolo[1,5-a][1,4]diazepin-2-yl)methanone], the inhibition at 0.01 µM on KRas WT was found to be 92%; at KRas G12A, 83%; on KRas G12C it was 99%; on KRas G12S it was 96%; at KRas G13D it was 96%; on KRas Q61H it was 96%. The IC50 in the experiment with MKN1 cells was found to be 6.6 nM; with PSN1 cells, 3610 nM; in the experiment on ASPC1 cells it was 3 nM; in the experiment on H727 cells, 3 nM; with A549 cells it was 17 nM; in the experiment with H460 cells it was 56 nM. The IC50 with HCT116 cells came to 114 nM; in the experiment on H358 cells, 3 nM. Also, the inhibition at 0.1 µM stood at 88% in the experiment with A549 cells, 66% in the experiment with H460 cells, 47% with HCT116 cells and 97% in the experiment with H358 cells.

As for `CCc1c(F)ccc2cc(O)cc(N3CCc4c(nc(OC[C@@]56CCCN5C[C@H](F)C6)nc4N4CCCn5nc(C(=O)N6CC7CCCC6C7)cc5C4)C3)c12` (stereo partly drawn) [Example 328, 6-azabicyclo[3.2.1]octan-6-yl(5-(7-(8-ethyl-7-fluoro-3-hydroxynaphthalen-1-yl)-2-(((2R,7aS)-2-fluorohexahydro-1H-pyrrolizin-7a-yl)methoxy)-5,6,7,8-tetrahydropyrido[3,4-d]pyrimidin-4-yl)-5,6,7,8-tetrahydro-4H-pyrazolo[1,5-a][1,4]diazepin-2-yl)methanone], the inhibition at 0.01 µM on KRas WT came to 88%; at KRas G12A it was 87%; at KRas G12C it was 96%; at KRas G12S, 95%; on KRas G13D, 91%; at KRas Q61H, 91%. Also, the IC50 in the experiment with MKN1 cells was 23.5 nM; with PSN1 cells, 5570 nM; in the experiment with ASPC1 cells it was 11 nM; with H727 cells it was 14 nM. Moreover, the inhibition at 0.1 µM in the experiment on A549 cells was 72%; in the experiment on H460 cells, 54%; in the experiment with HCT116 cells it was 8%; in the experiment on H358 cells, 94%.

The values above are taken from US20250368649A1, “TETRAHYDROPYRIDOPYRIMIDINE PAN-KRAS INHIBITORS” (Mirati Therapeutics, Inc., priority 2022, published 2025).
